Experimental data reported in the antibiotic and cytotoxicity screens of Wong et al. (2023).
The other results are listed elsewhere or left out.

tested on: HSkMC (human skeletal muscle cells); assay: cytotoxicity call (relative viability < 0.9); conditions: 10 µM

Row | SMILES | cytotoxicity call
1 | C[C@H](CO)N1C[C@H](C)[C@H](CN(C)Cc2ccc(Oc3ccccc3)cc2)OCc2ccccc2-c2c(n(C)c3ccccc23)C1=O | inactive
2 | O=c1[nH]cc(COCc2ccccc2)c(=O)[nH]1 | inactive
3 | CCNC(=O)C[C@H]1CC[C@H](NC(=O)C2CC2)[C@@H](CO)O1 | inactive
4 | Cc1noc(C)c1NC(=O)Nc1ccc2c(c1)CC(=O)N([C@@H](C)CO)C[C@H](C)[C@@H](CN(C)Cc1ccc(Cl)c(Cl)c1)O2 | inactive
5 | COc1ccc(-c2cnc3c(c2)C(=O)N([C@H](C)CO)C[C@H](C)[C@H](CN(C)S(=O)(=O)c2cn(C)cn2)O3)cc1 | inactive
6 | C=CC(=O)Nc1cccc(C)c1Nc1ncc2cc(-c3c(Cl)c(OC)cc(OC)c3Cl)ccc2n1 | inactive
7 | Nc1nnnn1/N=C/c1ccco1 | inactive
8 | Cc1ccc(S(=O)(=O)N(C)C[C@H]2Oc3c(NS(=O)(=O)c4ccccc4)cccc3C(=O)N([C@@H](C)CO)C[C@H]2C)cc1 | inactive
9 | C[C@H](CO)N1C[C@H](C)[C@@H](CN(C)Cc2ccc(Cl)c(Cl)c2)OCCCC[C@H](C)Oc2ccc(NS(=O)(=O)c3ccccc3)cc2C1=O | inactive
10 | O=C1O[C@@H](c2ccccc2)[C@@H](c2ccccc2)N2[C@@H](c3ccc(O)cc3)[C@]3(C(=O)Nc4ccc(C#CC5(O)CCCCCC5)cc43)[C@@H](C(=O)NC[C@H](O)c3ccccc3)[C@H]12 | inactive
11 | CN(C)CCCN1c2ccccc2CCc2ccc(Cl)cc21.Cl | inactive
12 | COc1ccc(-c2ccc3c(c2)O[C@H](CN(C)CC2CCOCC2)[C@H](C)CN([C@H](C)CO)S3(=O)=O)cc1 | inactive
13 | O=C(C[C@@H]1CC[C@@H]2[C@H](COC[C@@H](O)CN2S(=O)(=O)c2ccccc2)O1)N[C@H]1CCN(Cc2ccccc2)C1 | inactive
14 | COc1ccccc1NC(=O)N(C)C[C@H]1Oc2ncc(C#CCN(C)C)cc2C(=O)N([C@H](C)CO)C[C@@H]1C | inactive
15 | C[C@H](CO)N1C[C@H](C)[C@@H](CN(C)S(=O)(=O)c2ccc(Oc3ccccc3)nc2)OCc2cn(nn2)CCCC1=O | inactive
16 | C[C@H]1CCCCO[C@@H](CN(C)Cc2ccncc2)[C@@H](C)CN([C@@H](C)CO)C(=O)c2cc(NC(=O)Nc3ccccc3)ccc2O1 | inactive
17 | O=C(C[C@H]1C[C@H]2c3cc(NS(=O)(=O)c4ccc(F)cc4)ccc3O[C@H]2[C@@H](CO)O1)NCc1ccncc1 | inactive
18 | C[C@@H]1CCCCO[C@@H](CN(C)Cc2ccccc2)[C@H](C)CN([C@H](C)CO)C(=O)c2cc(NS(=O)(=O)c3cccs3)ccc2O1 | inactive
19 | C[C@@H]1CN([C@@H](C)CO)C(=O)c2cccc(NC(=O)c3cnccn3)c2O[C@H]1CN(C)S(=O)(=O)c1cn(C)cn1 | inactive
20 | CC(=O)OC[C@H]1O[C@H](C/C=N/O[C@H](C)c2cn([C@@H]3COC[C@H]3O)nn2)C=C[C@@H]1OC(C)=O | inactive
21 | Cc1noc(C)c1S(=O)(=O)N(C)C[C@@H]1Oc2ccc(NS(=O)(=O)c3cccs3)cc2C(=O)N([C@H](C)CO)C[C@@H]1C | inactive
22 | C[C@@H]1CN([C@H](C)CO)C(=O)c2cccc(NS(=O)(=O)c3cn(C)cn3)c2O[C@H]1CN(C)Cc1ccncc1 | inactive
23 | COc1ccc(-c2cc(=O)c3c(OC)cc(OC)cc3o2)cc1 | inactive
24 | Cc1cc(C(=O)Nc2cccc3c2O[C@@H](CN(C)S(C)(=O)=O)[C@@H](C)CN([C@H](C)CO)C3=O)n(C)n1 | inactive
25 | C[C@@H]1CCCCO[C@H](CN(C)S(=O)(=O)c2cccs2)[C@H](C)CN([C@@H](C)CO)C(=O)c2cc(NS(=O)(=O)c3cn(C)cn3)ccc2O1 | inactive
26 | C=CCOC(=O)[C@@H]1[C@H]2C(=O)O[C@H](c3ccccc3)[C@H](c3ccccc3)N2[C@H](c2ccc(OCCOC(=O)[C@H]3C[C@H]4C(=O)N5CCC[C@H]5C(=O)N4[C@H]3c3cccc(OCCO)c3)cc2)[C@@]12C(=O)Nc1ccc(I)cc12 | inactive
27 | O=C(C[C@H]1C[C@@H]2c3cc(NC(=O)C4CCOCC4)ccc3O[C@@H]2[C@H](CO)O1)NCc1cc(F)ccc1F | inactive
28 | O=c1[nH]ncc2ccccc12 | inactive

tested on: HepG2; assay: cytotoxicity call (relative viability < 0.9); conditions: 10 µM

Row | SMILES | cytotoxicity call
29 | C=CC(=O)NCCN1CCOCC1 | inactive
30 | CNC[C@H]1OCCCC[C@@H](C)Oc2ccc(NC(=O)Nc3cccc4ccccc34)cc2C(=O)N([C@@H](C)CO)C[C@@H]1C | inactive
31 | C[C@H]1CCCCO[C@@H](CN(C)Cc2ccc(C(=O)O)cc2)[C@@H](C)CN([C@@H](C)CO)C(=O)c2cc(NS(=O)(=O)c3ccc(F)cc3)ccc2O1 | inactive
32 | C[C@@H]1CCCCO[C@H](CN(C)Cc2ccc3c(c2)OCO3)[C@H](C)CN([C@@H](C)CO)C(=O)c2cc(NC(=O)CCC(F)(F)F)ccc2O1 | inactive
33 | COc1ccccc1S(=O)(=O)N[C@@H]1C=C[C@@H](CC(=O)N2CCN(C)CC2)O[C@@H]1CO | inactive
34 | C[C@H]1CCCCO[C@H](CN(C)S(=O)(=O)c2ccc(F)cc2)[C@@H](C)CN([C@@H](C)CO)C(=O)c2cc(NS(=O)(=O)c3ccc(Cl)cc3)ccc2O1 | active
35 | COc1ccc(NC(=O)Nc2cccc3c2O[C@@H](CN(C)S(=O)(=O)c2cn(C)cn2)[C@H](C)CN([C@H](C)CO)C3=O)cc1 | inactive
36 | CN(CC(=O)O)S(=O)(=O)c1ccc(F)cc1 | inactive
37 | CC(C)(C)[S@@](=O)N1Cc2cc(C(=O)NC3CCCCC3)nc(-c3cccc(Br)c3)c2[C@H]1CCO | inactive
38 | COc1ccc(CN(C)C[C@@H]2OCCCC[C@H](C)Oc3ccc(NC(=O)c4ccncc4)cc3C(=O)N([C@H](C)CO)C[C@H]2C)cc1 | inactive
39 | CC[C@@H]1CN(C(=O)OC)N1 | inactive
40 | C[C@@H]1CN([C@H](C)CO)C(=O)Cc2cc(NC(=O)Nc3ccc(C(F)(F)F)cc3)ccc2O[C@@H]1CN(C)Cc1ccccc1 | active
41 | C[C@H](CO)N1C[C@H](C)[C@H](CN(C)Cc2ccc(Oc3ccccc3)cc2)OCc2ccccc2-c2c(n(C)c3ccccc23)C1=O | inactive
42 | O=c1[nH]cc(COCc2ccccc2)c(=O)[nH]1 | inactive
43 | CCNC(=O)C[C@H]1CC[C@H](NC(=O)C2CC2)[C@@H](CO)O1 | inactive
44 | Cc1noc(C)c1NC(=O)Nc1ccc2c(c1)CC(=O)N([C@@H](C)CO)C[C@H](C)[C@@H](CN(C)Cc1ccc(Cl)c(Cl)c1)O2 | inactive
45 | COc1ccc(-c2cnc3c(c2)C(=O)N([C@H](C)CO)C[C@H](C)[C@H](CN(C)S(=O)(=O)c2cn(C)cn2)O3)cc1 | inactive
46 | C=CC(=O)Nc1cccc(C)c1Nc1ncc2cc(-c3c(Cl)c(OC)cc(OC)c3Cl)ccc2n1 | active
47 | Nc1nnnn1/N=C/c1ccco1 | inactive
48 | Cc1ccc(S(=O)(=O)N(C)C[C@H]2Oc3c(NS(=O)(=O)c4ccccc4)cccc3C(=O)N([C@@H](C)CO)C[C@H]2C)cc1 | inactive

Row | SMILES | cytotoxicity call
49 | C[C@H](CO)N1C[C@H](C)[C@@H](CN(C)Cc2ccc(Cl)c(Cl)c2)OCCCC[C@H](C)Oc2ccc(NS(=O)(=O)c3ccccc3)cc2C1=O | active
50 | O=C1O[C@@H](c2ccccc2)[C@@H](c2ccccc2)N2[C@@H](c3ccc(O)cc3)[C@]3(C(=O)Nc4ccc(C#CC5(O)CCCCCC5)cc43)[C@@H](C(=O)NC[C@H](O)c3ccccc3)[C@H]12 | inactive
51 | CN(C)CCCN1c2ccccc2CCc2ccc(Cl)cc21.Cl | inactive
52 | COc1ccc(-c2ccc3c(c2)O[C@H](CN(C)CC2CCOCC2)[C@H](C)CN([C@H](C)CO)S3(=O)=O)cc1 | inactive
53 | O=C(C[C@@H]1CC[C@@H]2[C@H](COC[C@@H](O)CN2S(=O)(=O)c2ccccc2)O1)N[C@H]1CCN(Cc2ccccc2)C1 | inactive
54 | COc1ccccc1NC(=O)N(C)C[C@H]1Oc2ncc(C#CCN(C)C)cc2C(=O)N([C@H](C)CO)C[C@@H]1C | inactive
55 | C[C@H](CO)N1C[C@H](C)[C@@H](CN(C)S(=O)(=O)c2ccc(Oc3ccccc3)nc2)OCc2cn(nn2)CCCC1=O | inactive
56 | C[C@H]1CCCCO[C@@H](CN(C)Cc2ccncc2)[C@@H](C)CN([C@@H](C)CO)C(=O)c2cc(NC(=O)Nc3ccccc3)ccc2O1 | inactive
57 | O=C(C[C@H]1C[C@H]2c3cc(NS(=O)(=O)c4ccc(F)cc4)ccc3O[C@H]2[C@@H](CO)O1)NCc1ccncc1 | inactive
58 | C[C@@H]1CCCCO[C@@H](CN(C)Cc2ccccc2)[C@H](C)CN([C@H](C)CO)C(=O)c2cc(NS(=O)(=O)c3cccs3)ccc2O1 | inactive
59 | C[C@@H]1CN([C@@H](C)CO)C(=O)c2cccc(NC(=O)c3cnccn3)c2O[C@H]1CN(C)S(=O)(=O)c1cn(C)cn1 | inactive
60 | CC(=O)OC[C@H]1O[C@H](C/C=N/O[C@H](C)c2cn([C@@H]3COC[C@H]3O)nn2)C=C[C@@H]1OC(C)=O | inactive
61 | Cc1noc(C)c1S(=O)(=O)N(C)C[C@@H]1Oc2ccc(NS(=O)(=O)c3cccs3)cc2C(=O)N([C@H](C)CO)C[C@@H]1C | inactive
62 | C[C@@H]1CN([C@H](C)CO)C(=O)c2cccc(NS(=O)(=O)c3cn(C)cn3)c2O[C@H]1CN(C)Cc1ccncc1 | inactive
63 | COc1ccc(-c2cc(=O)c3c(OC)cc(OC)cc3o2)cc1 | inactive
64 | Cc1cc(C(=O)Nc2cccc3c2O[C@@H](CN(C)S(C)(=O)=O)[C@@H](C)CN([C@H](C)CO)C3=O)n(C)n1 | inactive
65 | C[C@@H]1CCCCO[C@H](CN(C)S(=O)(=O)c2cccs2)[C@H](C)CN([C@@H](C)CO)C(=O)c2cc(NS(=O)(=O)c3cn(C)cn3)ccc2O1 | inactive
66 | C=CCOC(=O)[C@@H]1[C@H]2C(=O)O[C@H](c3ccccc3)[C@H](c3ccccc3)N2[C@H](c2ccc(OCCOC(=O)[C@H]3C[C@H]4C(=O)N5CCC[C@H]5C(=O)N4[C@H]3c3cccc(OCCO)c3)cc2)[C@@]12C(=O)Nc1ccc(I)cc12 | inactive
67 | O=C(C[C@H]1C[C@@H]2c3cc(NC(=O)C4CCOCC4)ccc3O[C@@H]2[C@H](CO)O1)NCc1cc(F)ccc1F | inactive
68 | O=c1[nH]ncc2ccccc12 | inactive
